Experiment [1] addresses T1, GST-LIN28A (full-length, 1–209) (human (cDNA of PA-1 cells)) (UniProt Q9H9Z2).
T1 sequence: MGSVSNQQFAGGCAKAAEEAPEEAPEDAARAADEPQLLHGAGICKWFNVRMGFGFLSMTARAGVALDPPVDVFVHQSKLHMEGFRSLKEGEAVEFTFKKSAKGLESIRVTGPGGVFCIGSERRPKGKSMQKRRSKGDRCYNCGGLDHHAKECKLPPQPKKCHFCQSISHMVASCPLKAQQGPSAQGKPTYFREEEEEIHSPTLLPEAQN
Put plainly: pull-down; GST pull-down (Glutathione Sepharose 4B) from lysates of co-transfected 293T cells, with or without nuclease (benzonase or DNase I/RNase A/MNase mixture); washes in NET2 (150 mM NaCl, 0.5% NP-40), 4 °C; western blot.

Experiment [2] deals with T2, LIN28A overexpressed in HeLa cells (human (cDNA of PA-1 cells)) (UniProt Q9H9Z2).
T2 sequence: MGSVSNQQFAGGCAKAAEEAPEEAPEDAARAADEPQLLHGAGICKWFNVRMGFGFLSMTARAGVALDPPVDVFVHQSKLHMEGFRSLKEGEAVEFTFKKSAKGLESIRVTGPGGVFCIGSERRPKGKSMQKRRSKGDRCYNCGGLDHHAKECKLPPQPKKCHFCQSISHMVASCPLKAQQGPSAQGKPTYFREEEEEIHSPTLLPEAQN
Put plainly: proximity ligation; PLA of UPF1 and LIN28A in LIN28A-overexpressing HeLa cells and hPSCs treated with synthetic CPP-conjugated peptides, read as displacement by CPP-P8; only the binder purified.

The target in experiment [3] is T3, LIN28A (endogenous) (human (endogenous in hPSCs, PA-1)) (UniProt Q9H9Z2).
T3 sequence: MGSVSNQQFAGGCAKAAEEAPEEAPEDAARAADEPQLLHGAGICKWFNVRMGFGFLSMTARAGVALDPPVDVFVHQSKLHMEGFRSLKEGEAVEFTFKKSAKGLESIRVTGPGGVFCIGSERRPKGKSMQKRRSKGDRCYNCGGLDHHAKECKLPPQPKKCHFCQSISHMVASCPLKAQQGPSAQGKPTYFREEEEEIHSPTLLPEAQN
The experiment is described as above.

The target in experiment [4] is T1, GST-LIN28A (full-length, 1–209) (human (cDNA of PA-1 cells)). Put plainly: pull-down; same experiment as a9, read as displacement by the synthetic peptide CPP-P8 added to the cells (2 μM, 12 h); only the binder purified.
The target of experiment [5] is T4, His-LIN28A (UniProt Q9H9Z2 1-209).
T4 chain: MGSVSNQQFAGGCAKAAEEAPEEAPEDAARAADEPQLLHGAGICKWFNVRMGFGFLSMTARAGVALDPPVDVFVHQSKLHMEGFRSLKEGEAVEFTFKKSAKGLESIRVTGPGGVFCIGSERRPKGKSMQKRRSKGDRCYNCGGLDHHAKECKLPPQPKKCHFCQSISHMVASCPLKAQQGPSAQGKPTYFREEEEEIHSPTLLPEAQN
Put plainly: SPR; His-LIN28A immobilised on Ni-NTA gold chip (about 1000 RU), peptides as analytes at 15 μM in 1× HBS-T, 3 min association, 6 min dissociation; iMSPR-ProX; both purified.

The target of experiment [6] is T5, GST-LIN28A(78–163) (human (cDNA of PA-1 cells)) (UniProt Q9H9Z2).
T5 sequence: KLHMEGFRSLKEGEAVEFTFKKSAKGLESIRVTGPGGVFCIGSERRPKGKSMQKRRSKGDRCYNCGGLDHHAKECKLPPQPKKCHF
Put plainly: pull-down; GST pull-down (Glutathione Sepharose 4B) from lysates of co-transfected 293T cells, with or without nuclease (benzonase or DNase I/RNase A/MNase mixture); washes in NET2 (150 mM NaCl, 0.5% NP-40), 4 °C; western blot.

The target in experiment [7] is T6, GST-LIN28A(1–77) (human (cDNA of PA-1 cells)) (UniProt Q9H9Z2).
T6 sequence: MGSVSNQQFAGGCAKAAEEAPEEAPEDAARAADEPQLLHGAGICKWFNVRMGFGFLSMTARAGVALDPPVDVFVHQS
The description is as above.

Experiment [8] concerns the target T7, GST-LIN28A(1–124) (human (cDNA of PA-1 cells)) (UniProt Q9H9Z2).
T7 sequence: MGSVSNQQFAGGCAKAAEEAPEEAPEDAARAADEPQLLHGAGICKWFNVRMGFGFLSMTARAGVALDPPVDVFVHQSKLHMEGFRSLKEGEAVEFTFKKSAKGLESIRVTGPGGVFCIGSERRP
The description is as above.

The target in experiment [9] is T4, His-LIN28A. Briefly: SPR; kinetic evaluation: His-LIN28A on Ni-NTA chip, P8 at 30, 15, 7.5, 3.8, 1.9 and 0.95 μM in 1× HBS-T; both purified.

The text below walks through data of article PMC10762078, “Role of UPF1-LIN28A interaction during early differentiation of pluripotent stem cells” (Nature Communications, 2024).

No constants are given. Whether binding was seen depends on the method and setting. For some assays here: Binding seen in cells or lysates may run through a third protein. Some results given as binding are weak or reduced against the parent protein; the word gives no strength. For some assays here: Sequences can lack the tags named with a protein.

B1: MYC-UPF1(419–700) (domain or fragment, UniProt Q92900-2 419-700)
chain: SFDRMQSALKTFAVDETSVSGYIYHKLLGHEVEDVIIKCQLPKRFTAQGLPDLNHSQVYAVKTVLQRPLSLIQGPPGTGKTVTSATIVYHLARQGNGPVLVCAPSNIAVDQLTEKIHQTGLKVVRLCAKSREAIDSPVSFLALHNQIRNMDSMPELQKLQQLKDETGELSSADEKRYRALKRTAERELLMNADVICCTCVGAGDPRLAKMQFRSILIDESTQATEPECMVPVVLGAKQLILVGDHCQLGPVVMCKKAAKAGLSQSLFERLVVLGIRPIRLQV
For the molecule B1, the binding entry in experiment [1] is “binds”.
As to KKKWCRKKKSSADEKRYRALKRTAERELLMNA [CPP-P8], the binding entry in [2], in [3] and in [4] was “binds” each time.
On to STSFDRMQSALKTFAVD [P4], for which the binding entry in experiment [5] is on record as “binds weakly”.

B2: MYC-UPF1 (protein, UniProt Q92900-2 1-1118)
chain: MSVEAYGPSSQTLTFLDTEEAELLGADTQGSEFEFTDFTLPSQTQTPPGGPGGPGGGGAGGPGGAGAGAAAGQLDAQVGPEGILQNGAVDDSVAKTSQLLAELNFEEDEEDTYYTKDLPIHACSYCGIHDPACVVYCNTSKKWFCNGRGNTSGSHIVNHLVRAKCKEVTLHKDGPLGETVLECYNCGCRNVFLLGFIPAKADSVVVLLCRQPCASQSSLKDINWDSSQWQPLIQDRCFLSWLVKIPSEQEQLRARQITAQQINKLEELWKENPSATLEDLEKPGVDEEPQHVLLRYEDAYQYQNIFGPLVKLEADYDKKLKESQTQDNITVRWDLGLNKKRIAYFTLPKTDSDMRLMQGDEICLRYKGDLAPLWKGIGHVIKVPDNYGDEIAIELRSSVGAPVEVTHNFQVDFVWKSTSFDRMQSALKTFAVDETSVSGYIYHKLLGHEVEDVIIKCQLPKRFTAQGLPDLNHSQVYAVKTVLQRPLSLIQGPPGTGKTVTSATIVYHLARQGNGPVLVCAPSNIAVDQLTEKIHQTGLKVVRLCAKSREAIDSPVSFLALHNQIRNMDSMPELQKLQQLKDETGELSSADEKRYRALKRTAERELLMNADVICCTCVGAGDPRLAKMQFRSILIDESTQATEPECMVPVVLGAKQLILVGDHCQLGPVVMCKKAAKAGLSQSLFERLVVLGIRPIRLQVQYRMHPALSAFPSNIFYEGSLQNGVTAADRVKKGFDFQWPQPDKPMFFYVTQGQEEIASSGTSYLNRTEAANVEKITTKLLKAGAKPDQIGIITPYEGQRSYLVQYMQFSGSLHTKLYQEVEIASVDAFQGREKDFIILSCVRANEHQGIGFLNDPRRLNVALTRARYGVIIVGNPKALSKQPLWNHLLNYYKEQKVLVEGPLNNLRESLMQFSKPRKLVNTINPGARFMTTAMYDAREAIIPGSVYDRSSQGRPSSMYFQTHDQIGMISAGPSHVAAMNIPIPFNLVMPPMPPPGYFGQANGPAAGRGTPKGKTGRGGRQKNRFGLPGPSQTNLPNSQASQDVASQPFSQGALTQGYISMSQPSQMSQPGLSQPELSQDSYLGDEFKSQIDVALSQDSTYQGERAYQHGGVTGLSQY
B2: the binding result in experiment [6], in experiment [7], in experiment [1] and in experiment [8] was “binds” each time.
Turning to SSADEKRYRALKRTAERELLMNA [P8], the binding result in experiment [5] and in [9] was “binds” each time.
